Source: the supplement of paper PMC4967469
By IC50 is meant the dose at which the fit gives 50% viability; fits outside the tested doses are given as limits. AUC sums up the same curve from the lowest dose to the 256-fold higher top dose; it is 1 without any effect and falls as sensitivity rises. The top dose, if marked as inferred, comes from the curve model; the source does not state it.

Compound: COc1ncc(-c2ccc3nccc(-c4ccnnc4)c3c2)cc1NS(=O)(=O)c1ccc(F)cc1F [GSK2126458]
Experiment: Viability of human cancer cell lines after 72 h of drug (GDSC screen)
Details: top dose inferred
Procedure: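 Human cancer cell lines in 384-well plates, medium with 10% serum, drug for 72 h over a 256-fold dose range (nine 2-fold or five 4-fold steps up to the top dose). Adherent lines were fixed and stained with the nucleic acid dye Syto60, suspension lines read with resazurin; signal relative to control wells, capped at 0 and 100%. One two-parameter sigmoid per drug and line, fitted in a mixed model over all curves with the slope shared within a line.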

Cell Line | AUC | IC50 [nM]
NCI-H1838 (lung adenocarcinoma, adherent, top dose 0.128 µM) | 0.888 | > 128
NCI-H1869 (lung squamous cell carcinoma, adherent, top dose 0.128 µM) | 0.802 | 72.8
NCI-H1876 (small cell lung carcinoma, adherent, top dose 0.128 µM) | 0.574 | 12.8
NCI-H1915 (large cell lung carcinoma, adherent, top dose 0.128 µM) | 0.93 | > 128
NCI-H1944 (lung adenocarcinoma, adherent, top dose 0.128 µM) | 0.626 | 18.2
NCI-H1975 (lung adenocarcinoma, adherent, top dose 1.024 µM) | 0.421 | 37.6
NCI-H1993 (lung adenocarcinoma, adherent, top dose 0.128 µM) | 0.831 | 120
NCI-H2009 (lung adenocarcinoma, adherent, top dose 0.128 µM) | 0.954 | > 128
NCI-H2023 (lung adenocarcinoma, adherent, top dose 0.128 µM) | 0.891 | > 128
NCI-H2029 (small cell lung carcinoma, adherent, top dose 0.128 µM) | 0.925 | > 128
NCI-H2030 (lung adenocarcinoma, adherent, top dose 0.128 µM) | 0.741 | 43.8
NCI-H2052 (mesothelioma, adherent, top dose 0.128 µM) | 0.953 | > 128
NCI-H2081 (small cell lung carcinoma, suspension, top dose 0.128 µM) | 0.809 | 71.7
NCI-H2085 (lung adenocarcinoma, adherent, top dose 0.128 µM) | 0.452 | 5.86
NCI-H2087 (lung adenocarcinoma, semi-adherent, top dose 1.024 µM) | 0.709 | 263
NCI-H2110 (non-small cell lung carcinoma, adherent, top dose 0.128 µM) | 0.835 | 87.3
NCI-H2122 (lung adenocarcinoma, adherent, top dose 1.024 µM) | 0.784 | 405
NCI-H2135 (non-small cell lung carcinoma, adherent, top dose 0.128 µM) | 0.822 | 71.6
NCI-H2141 (small cell lung carcinoma, suspension, top dose 0.128 µM) | 0.796 | 57.8
NCI-H2170 (lung squamous cell carcinoma, adherent, top dose 0.128 µM) | 0.937 | > 128
NCI-H2171 (small cell lung carcinoma, suspension, top dose 0.128 µM) | 0.562 | 11.5
NCI-H2172 (non-small cell lung carcinoma, adherent, top dose 0.128 µM) | 0.928 | > 128
NCI-H2196 (small cell lung carcinoma, adherent, top dose 0.128 µM) | 0.832 | 87.6
NCI-H2227 (small cell lung carcinoma, semi-adherent, top dose 0.128 µM) | 0.678 | 26.9
NCI-H2228 (lung adenocarcinoma, adherent, top dose 0.128 µM) | 0.767 | 73.5

Cell Line | AUC | IC50 [nM]
NCI-H2291 (lung adenocarcinoma, adherent, top dose 0.128 µM) | 0.976 | > 128
NCI-H2342 (lung adenocarcinoma, adherent, top dose 0.128 µM) | 0.937 | > 128
NCI-H2347 (lung adenocarcinoma, adherent, top dose 0.128 µM) | 0.782 | 65.9
NCI-H2405 (lung adenocarcinoma, adherent, top dose 0.128 µM) | 0.853 | 117
NCI-H2444 (non-small cell lung carcinoma, adherent, top dose 0.128 µM) | 0.919 | > 128
NCI-H2452 (mesothelioma, adherent, top dose 0.128 µM) | 0.984 | > 128
NCI-H3122 (lung adenocarcinoma, adherent, top dose 0.128 µM) | 0.627 | 18.2
NCI-SNU-1 (stomach, suspension, top dose 0.128 µM) | 0.79 | 59.1
NCI-SNU-5 (stomach, suspension, top dose 0.128 µM) | 0.976 | > 128
NCI-SNU-16 (stomach, suspension, top dose 0.128 µM) | 0.991 | > 128
NEC8 (testis, adherent, top dose 0.128 µM) | 0.944 | > 128
NH-12 (neuroblastoma, adherent, top dose 0.128 µM) | 0.371 | 3.38
NKM-1 (acute myeloid leukaemia, suspension, top dose 0.128 µM) | 0.254 | 1.54
NMC-G1 (glioma, adherent, top dose 0.128 µM) | 0.649 | 22.8
NOMO-1 (acute myeloid leukaemia, suspension, top dose 0.128 µM) | 0.459 | 6.09
NOS-1 (osteosarcoma, adherent, top dose 0.128 µM) | 0.285 | 1.7
NTERA-2 cl.D1 (testis, adherent, top dose 0.128 µM) | 0.74 | 38.5
NU-DUL-1 (B-cell lymphoma, suspension, top dose 0.128 µM) | 0.104 | 0.624
NUGC-3 (stomach, adherent, top dose 0.128 µM) | 0.852 | 118
NUGC-4 (stomach, adherent, top dose 0.128 µM) | 0.972 | > 128
NY (osteosarcoma, adherent, top dose 0.128 µM) | 0.974 | > 128
OACM5-1 (oesophagus, semi-adherent, top dose 0.128 µM) | 0.333 | 2.57
OACp4C (oesophagus, adherent, top dose 0.128 µM) | 0.299 | 1.92
OAW-28 (ovary, adherent, top dose 0.128 µM) | 0.65 | 23.3
OAW-42 (ovary, adherent, top dose 0.128 µM) | 0.477 | 6.9

Cell Line | AUC | IC50 [nM]
OC-314 (ovary, adherent, top dose 0.128 µM) | 0.708 | 27.9
OCI-AML2 (acute myeloid leukaemia, suspension, top dose 0.128 µM) | 0.857 | 65
OCI-AML3 (acute myeloid leukaemia, suspension, top dose 0.128 µM) | 0.571 | 12.1
OCI-AML5 (acute myeloid leukaemia, suspension, top dose 0.128 µM) | 0.329 | 2.79
OCI-LY-19 (B-cell lymphoma, suspension, top dose 0.128 µM) | 0.255 | 1.7
OCI-M1 (acute myeloid leukaemia, suspension, top dose 0.128 µM) | 0.337 | 3.18
OCUB-M (breast, adherent, top dose 0.128 µM) | 0.365 | 3.6
OCUM-1 (stomach, adherent, top dose 0.128 µM) | 0.907 | > 128
OE19 (oesophagus, adherent, top dose 0.128 µM) | 0.976 | > 128
OE21 (oesophagus, adherent, top dose 0.128 µM) | 0.841 | > 128
OE33 (oesophagus, adherent, top dose 0.128 µM) | 0.825 | 97.1
OMC-1 (cervix, adherent, top dose 0.128 µM) | 0.728 | 36.9
ONS-76 (medulloblastoma, adherent, top dose 0.128 µM) | 0.736 | 40
OPM-2 (myeloma, suspension, top dose 0.128 µM) | 0.673 | 21.9
OS-RC-2 (kidney, adherent, top dose 0.128 µM) | 0.633 | 22
OSC-19 (head and neck, adherent, top dose 0.128 µM) | 0.71 | 32.3
OSC-20 (head and neck, adherent, top dose 0.128 µM) | 0.759 | 52.7
OV-7 (ovary, adherent, top dose 0.128 µM) | 0.646 | 25.1
OV-17R (ovary, adherent, top dose 0.128 µM) | 0.763 | 64.7
OV-56 (ovary, adherent, top dose 0.128 µM) | 0.823 | 71.1
OV-90 (ovary, adherent, top dose 0.128 µM) | 0.843 | > 128
OVCA420 (ovary, adherent, top dose 0.128 µM) | 0.915 | > 128
OVCA433 (ovary, adherent, top dose 0.128 µM) | 0.899 | > 128
OVCAR-3 (ovary, adherent, top dose 0.128 µM) | 0.987 | > 128
OVCAR-4 (ovary, adherent, top dose 0.128 µM) | 0.734 | 52.8
